Data as given in PubChem BioAssay AID1508623 (National Center for Advancing Translational Sciences (NCATS), 2021).
Hit rate of the full screen: of about 48,000 compounds, about 450 (0.94%) were called active. About 19% were inconclusive and are not listed. Calls follow the shape of the dose curve; as a rule, active = well fitted inhibition curve with a large enough effect; inconclusive = small, poorly fitted or top-dose-only effect; inactive = no such curve, though single readings can be large or run the other way. This is one part of the list.

assay: Primary qHTS for Identification of Small Molecule Inhibitors of Huntingtin Promoter Activity; settings: HEK293 HTT promoter firefly luciferase reporter (activity 0% = vehicle and -100% = no light), 24 h; series mostly up to 57.5 µM; activity change, negative = inhibition: at the top concentration; also: nearly all actives have a fitted effect of over 50% in size
Source text: Assay Provider: Russell L. Margolis M.D.
Department Neurology, Johns Hopkins University School of Medicine, Baltimore, MD
Huntington's Disease (HD) is a neurodegenerative disorder caused by a CAG repeat expansion in exon 1 of huntingtin (HTT). While there are currently no disease-modifying treatments for HD, recent efforts have focused on development of nucleotide-based therapeutics to lower HTT expression. As an alternative to siRNA or oligonucleotide methods, we hypothesized that suppression of HTT expression might be accomplished by small molecules that either (1) directly decrease HTT expression by suppressing HTT promoter activity or (2) indirectly decrease HTT expression by increasing the promoter activity of HTT-AS, the gene antisense to HTT that appears to inhibit expression of HTT.
We developed and employed a high throughput screen for modifiers of HTT and HTT-AS promoter activity using luminescent reporter HEK293 cells; of the 52,041 compounds tested, we identified 898 replicable hits. We used a rigorous stepwise approach to assess compound toxicity and the capacity of the compounds to specifically lower huntingtin protein in 5 different cell lines, including HEK293 cells, HD lymphoblastoid cells, mouse primary neurons, HD iPSCs differentiated into cortical-like neurons, and HD hESCs. We found no compounds which were able to lower huntingtin without lowering cell viability in all assays, though the potential efficacy of a few compounds at non-toxic doses could not be excluded.
SEQUENCE No. (1, 2, 3, etc.); […] (e.g., Cells, Incubation, Reagent, etc.); VALUE and DESCRIPTION.
1; Reagent; 4 uL; 2,500 Hek293 luciferase reporter cells per wells
3; Compound; 23 nL; Control inhibitor / compound library
5; Reagent; 2.5 uL; Firefly Luc reagent; Dual-Glo Luciferase Reporter Assay System (Promega)
6; Time; 10 min; room temperature incubation
7; Detection; Luminescence; FLuc
NOTES (numbers refer to sequence above)
1; High-throughput screening, measuring luminescence from a Hek293 luciferase reporter, was performed in 1,536 well white-walled tissue-culture treated plates. 2,500 cells were plated in 4 µL of Opti-MEM per well using a Multidrop Combi Reagent Dispenser (ThermoFisher).
2; Assay plates were cultured for 24 hours.
3; Control inhibitor (PTC124; final concentration of 50 uM) and compound library (at final concentrations of 460 nM - 57.5 uM) were added to the assay plate using the Kalypsis Pintool Robotic System equipped with 1536 pinheads.
4; Cells were then incubated for 24 hours at 37 degrees C prior to luminescence measurements.
5; In all cases, luminescence was measured using the Dual-Glo Luciferase Reporter Assay System (Promega) following the manufacturer's instructions.
6; Room temperature incubation.
7; Luminescence signal was obtained using the PerkinElmer ViewLux plate reader. Results were normalized to vehicle control (0% activity) and zero RLU (-100% activity).

Activity change, negative = inhibition, inactive:
Cc1ccnc2c1NC(=O)c1cccnc1N2C1CC1 -1.05%, O=S(=O)(c1ccc(-c2cc(C(F)(F)F)on2)s1)N1CCN(c2ccc(F)cc2)CC1 -13.9%, CN(C)CCC=C1c2ccccc2CCc2ccccc21 -7.04%, COc1ccc(NC(=O)C2CCCN(c3ncnc4c3nc3n4CCCCC3)C2)c(OC)c1 (stereo unspecified) 23.5% [at 11.5 µM], Cc1cc(Br)ccc1NC(=O)Cn1cc(S(=O)(=O)N2CCN(c3ccccc3F)CC2)c2ccccc2c1=O 1.51%, Cc1ccc(C)c(N2CCN(C(=O)CCc3nnc4n(CC(C)C)c(=O)c5ccccc5n34)CC2)c1 0.144%, CCOc1ccc(CNC(=O)c2cnc3sc(N4CCOCC4)nn3c2=O)cc1 -5.11%, CCn1cc(C(=O)N2CCN(c3cccc(Cl)c3)CC2)c2cc(OC)c(OC)cc2c1=O -28%, CC(=O)c1ccc(Nc2nc3c(S(=O)(=O)c4ccccc4)nnn3c3ccc(Cl)cc23)cc1 -21.2%, CCSc1oc(-c2ccco2)nc1S(=O)(=O)c1ccc(Br)cc1 -29.4%, Cc1ccc(NC(=O)Cn2c(=O)c3ccccc3n3nncc23)cc1 -20.2%, Cc1[nH]c(=O)c(C#N)cc1-c1ccncc1, CCN1c2ccccc2-c2nc(SCC(=O)NCc3ccccc3)ncc2S1(=O)=O -30.7%, COC(=O)CCNC(=O)NC(CCC(C)C)c1c(-n2cccc2)sc2c1CCN(C)C2 (stereo unspecified) -12%, COc1ccccc1NC(=O)Cn1c(=O)n(CCC(=O)NCC2CCCO2)c(=O)c2cc(OC)c(OC)cc21 (stereo unspecified) -10.1%, CCC(=O)N1CCc2cc(S(=O)(=O)NCCC(=O)Nc3cc(C)ccc3OC)ccc21 -26%, Cc1ccc2nc(-c3ccc(O)cc3)c(Nc3ccc(Cl)cc3)n2c1 -13.6%, CCCN(CCC)C(=O)Cn1c(=O)n(-c2ccc(Cl)cc2)c(=O)c2c3c(sc21)CCCCC3 -5.29%, Cc1ccc(-c2nn(-c3ccc(F)cc3)c3c2cnc2cc(F)c(F)cc23)cc1 -13.6%, CCCc1cc(=O)[nH]c(SCC(=O)N2CCN(c3ccccc3OC)CC2)n1 -1.13%, CC(C)[C@H](CO)Nc1nc(Nc2cccc(Cl)c2)c2ncn(C(C)C)c2n1 -26.6%, Cc1ccccc1C(=O)Nc1ccc(OCc2cc(=O)n3ccccc3n2)cc1 4.09%, Cc1ccc(NC(=O)Cn2cc(S(=O)(=O)N3CCCC3)c(S(=O)(=O)N3CCCC3)c2)cc1F 7.83% [at 11.5 µM], Cc1ccc(C)c(S(=O)(=O)c2nnn3c2nc(Nc2ccc(C)c(C)c2)c2ccccc23)c1 -14.3%, COc1cccc(NC(=O)CCN2CCN(c3ccccc3)CC2)c1 -5.42%, COc1cccc(C(=O)NCC(c2ccc(N(C)C)cc2)N2CCc3ccccc32)c1 (stereo unspecified) -3.3%, Cn1cc(CCC(=O)NCc2ccc(Cl)cc2)c2ccccc21 -25.3%, CC1CCC(Nc2ncnc3onc(-c4ccc(F)cc4)c23)CC1 (stereo unspecified) -21.7%, O=C(O)c1c(-c2ccccc2)oc2ccc(OCc3ccc(Cl)c(Cl)c3)cc12 -16.8%, COc1cccc(-n2c(=O)c3c(C)c(C)sc3n(CC(=O)Nc3ccccc3OC)c2=O)c1 -7.25%, CCOc1cccc(C(=O)N(Cc2ccc(N(C)C)cc2)CC2CCCO2)c1 (stereo unspecified) -15.5%, CCOc1ccc(N(C(=O)c2ccccc2F)S(=O)(=O)c2ccc3c(c2)n(C)c(=O)n3C)cc1 18.2%, CCc1ccccc1NC(=O)N1CCC(CN2CCc3ccccc3C2)CC1 -20.8%, Cc1ccc(C(=O)CCC(=O)Nc2ccc(C)cc2C)cc1 3.02%, CC1CCN(S(=O)(=O)c2ccc3c(ccc(=O)n3CC(=O)Nc3ccc(C(C)C)cc3)c2)CC1 -28.1%, Nc1nc(SCC(=O)Nc2cccc(C(F)(F)F)c2)n[nH]1 -19.3%, CCOC(=O)c1c(-c2ccc(C)cc2)csc1NC(=O)c1cc(-c2ccc(Cl)cc2)on1 -11.9%, CS(=O)(=O)N(CC(=O)Nc1ccc(Br)cc1)c1ccccc1Br -20.6%, CNC(=O)Cn1nc(-c2ccc(Cl)cc2)c2ccccc2c1=O -15.5% [at 11.5 µM], COc1ccc(NC(=O)CSC2=Nc3ccccc3C3=NC(CCC(=O)NCc4ccc(F)cc4)C(=O)N23)cc1Cl (stereo unspecified) -18.5%, CCCCC(CC)CNC(=O)CN(C)S(=O)(=O)c1ccc2c(c1)c(=O)n(C)c(=O)n2C (stereo unspecified) -8.29%, Cc1nn(C)c2c1c(-c1ccccc1)cc(=O)n2Cc1ccccc1Cl -0.216%, COc1cccc(N2CCN(C(=O)C3CCN(S(=O)(=O)c4cccc5nonc45)CC3)CC2)c1 -20.7%, Cc1ccc(CN(C(=O)COc2ccc(Cl)cc2)c2ccccn2)o1 -13.2%, Cc1cc(NC(=O)CCNS(=O)(=O)c2ccc3c(c2)CCCC(=O)N3)ccc1Br -28%, COc1cccc(C(=O)Nc2cccc(NC(=O)c3ccc(Cl)cc3Cl)c2)c1 3.66%, CCCCN(C)C(=O)Cn1c(C2CC(=O)N(c3ccc(C)cc3)C2)nc2ccccc21 (stereo unspecified) -7.71%, CCC(C)Nc1sc(S(=O)(=O)CC)nc1S(=O)(=O)c1ccc(C)cc1 (stereo unspecified) -14.2%, CCOc1ccc(CNC(=O)CCCn2nc(C)c3sc4ccccc4c3c2=O)cc1 -0.969%, COC(=O)c1cc(S(=O)(=O)NCC2CCN(Cc3ccc(C)cc3)CC2)cn1C -15.2%, CCCOc1ccc(-c2nn(-c3ccccc3)cc2C2NC(=O)NC(C)=C2C(=O)OC)cc1 (stereo unspecified) -15.1%, CCc1ccc(C(=O)c2cn(CC(=O)Nc3cc(OC)ccc3OC)c3ccc(C)cc3c2=O)cc1 -13%, Cc1ccc(C)c(NC(=O)Cn2c(=O)nc(-c3ccccc3)c3ccccc32)c1 -13.6%, O=C(Nc1ccc(N2CCN(c3ccc(F)cc3)CC2)c(C(=O)O)c1)c1ccccc1F 2.96%, COc1ccc(C)cc1NC(=O)C1CCN(S(=O)(=O)c2ccc3c(c2)CCCN3C(C)=O)CC1 14.4%, CC1=C(C(=O)Nc2cccnc2)C(c2ccccc2)n2nc(SCc3ccccc3Cl)nc2N1 (stereo unspecified) -6.76%, CCOC(=O)c1ccc(NC(=O)CSc2nc3ccccc3c(=O)n2CCNC(C)=O)cc1 -13.1%, CCc1ccc(NC(=O)CN2C(=O)C(c3ccc(F)cc3)=NC2(C)C)cc1 -24.8%, Cc1ccc(CCNC(=O)Cn2ncc3c([nH]c4ccc(C)cc43)c2=O)cc1 -0.0773%, CCCCOc1ccc(Cn2c(=O)oc3ccc(C)cc32)cc1 -26%, CCCN(CCC)CCNC(=O)Cn1cc2c(n1)-c1c(oc(C(=O)N3CCCC3)c1C)CC2 -4.46%, O=C(CS(=O)(=O)c1cccc2nsnc12)Nc1ccc(F)cc1 -4.12%, COC(=O)c1cc(S(=O)(=O)NCC2CCN(Cc3ccc(F)cc3)CC2)c[nH]1 -25.6%, COCCNC(=O)CSc1nc2cc3c(cc2c(=O)n1CCCC(=O)NCc1ccc(OC)cc1)OCO3 -19.4%, COc1ccc(S(=O)(=O)N2CCN(c3ccc(Cl)c(Cl)c3)CC2)c2ccccc12 -12.8%, COCCNC(=O)c1ccc2c(c1)N(Cc1cc(C)ccc1C)C(=O)c1ccccc1S2(=O)=O -12.4%, OCCNC1CCCc2c1[nH]c1ccc(-c3ccccc3)cc21 (stereo unspecified) -8.7%, Cc1cccc(NC(=O)c2cc(-c3ccc4c(c3)OCCO4)on2)c1 -23.9%, Cc1ccc(NC(=O)CSc2nc3ccccc3nc2Cc2ccccc2)c(C)c1 -1.95%, COc1ccc(S(=O)(=O)Nc2nnc(CC(C)C)s2)cc1 -3.02%, CCOc1ccc(Cn2c(-c3ccc(OCC)c(OC)c3)nc3ccccc32)cc1OC 7.21%, CSc1ncc(C(=O)Nc2cccc(C)c2C)c(-c2ccccc2)n1 -12.9%, COc1ccc(CNC(=O)C2CCN(S(=O)(=O)c3ccc(F)cc3)CC2)cc1 -20%, Cc1ccc(O)c2ncccc12 4.48%, COC(=O)c1ccc2c(c1)N(Cc1cc(C)ccc1C)C(=O)c1ccccc1S2 -20.6%, CCN(c1ccccc1)S(=O)(=O)c1nnc(NC(=O)C(C)(C)C)s1 -16.1%, CCN1CCc2nc3sc(C(=O)c4ccccc4)c(N)c3cc2C1 -12.4%, CCOc1ccc2nc(N3CCCC(C(=O)NCCCOC)C3)sc2c1 (stereo unspecified) -3.82%, COC(=O)c1ccc(Cn2c(SCc3ccccc3F)nc3ccncc32)cc1 -8.65%, CCOc1ccc(CCNC(=O)Cn2c(=O)c3cccn3c3ccc(F)cc32)cc1OCC 0.188%, CC1C(=O)Nc2ccc(S(=O)(=O)NCc3ccc(N(C)C)cc3)cc2NC1=O (stereo unspecified) -1.48%, COc1cccc(C(=O)c2cn(CC(=O)Nc3cccc(C(F)(F)F)c3)c3nc(C)ccc3c2=O)c1 -24.5%, CCN(CC)S(=O)(=O)c1ccc2c(c1)nc(CN(C)C(=O)Nc1cccc(Cl)c1)n2C -17.7%, COc1ccc(Cn2c(CCC(=O)Nc3ccc(C)c(C)c3)nc3cccnc32)cc1 -24.3%, CCCN(CCC)C(=O)CN1C(=O)CSc2ccc(S(=O)(=O)N3CCC(C)CC3)cc21 -28.5%, CC(=O)N1CCc2cc(S(=O)(=O)NC(CC(C)C)C(=O)NCCc3ccc(C)cc3)ccc21 (stereo unspecified) -6.18%, CCOc1ccc(C2c3[nH]c4ccccc4c3CCN2C(=O)Cc2cccc(OCC)c2OCC)cc1 (stereo unspecified) -23.2%, Cc1ccccc1Cn1nnc2c(=O)[nH]c(C3CCN(C(=O)c4ccccc4)CC3)nc21 -2.39%, Cc1cn([C@H]2C[C@H](F)[C@@H](CO)O2)c(=O)[nH]c1=O -4.41%, COc1ccc(-c2nc3sc(CCNC(=O)c4cccc(C(F)(F)F)c4)c(C)n3n2)cc1 35.6%, CCOC(=O)c1c(S(=O)(=O)NCC(=O)Nc2ccc(C)c(Cl)c2)c(C)n(C)c1C -0.0508%, O=C(C=Cc1ccc(O)cc1)c1ccc(O)cc1O -9.71%, CSc1ncc(C(=O)NCc2ccccc2)c(-c2ccccc2)n1 -5.59%, COc1ccc(NC(=O)C2CCCN2S(=O)(=O)c2cccc3cccnc23)cc1OC (stereo unspecified) -10.3%, CC(C)(C)n1cnc2cc(NCc3ccccc3Cl)ccc21 13%, CC(C)Oc1ccc(CNC(=O)c2ccc(NC(=O)N3CCSc4ncccc43)cc2)cc1 -35.6%
